# From the supplement of paper PMC3334620
# In all, about 33,000 sequences were measured (“E-score (-0.5 to 0.5)”: median about -0.043, highest 2% from about 0.37 on). Some of the results follow.
# Target: T1, Upc2 (UniProt Q12151)
# T1 sequence: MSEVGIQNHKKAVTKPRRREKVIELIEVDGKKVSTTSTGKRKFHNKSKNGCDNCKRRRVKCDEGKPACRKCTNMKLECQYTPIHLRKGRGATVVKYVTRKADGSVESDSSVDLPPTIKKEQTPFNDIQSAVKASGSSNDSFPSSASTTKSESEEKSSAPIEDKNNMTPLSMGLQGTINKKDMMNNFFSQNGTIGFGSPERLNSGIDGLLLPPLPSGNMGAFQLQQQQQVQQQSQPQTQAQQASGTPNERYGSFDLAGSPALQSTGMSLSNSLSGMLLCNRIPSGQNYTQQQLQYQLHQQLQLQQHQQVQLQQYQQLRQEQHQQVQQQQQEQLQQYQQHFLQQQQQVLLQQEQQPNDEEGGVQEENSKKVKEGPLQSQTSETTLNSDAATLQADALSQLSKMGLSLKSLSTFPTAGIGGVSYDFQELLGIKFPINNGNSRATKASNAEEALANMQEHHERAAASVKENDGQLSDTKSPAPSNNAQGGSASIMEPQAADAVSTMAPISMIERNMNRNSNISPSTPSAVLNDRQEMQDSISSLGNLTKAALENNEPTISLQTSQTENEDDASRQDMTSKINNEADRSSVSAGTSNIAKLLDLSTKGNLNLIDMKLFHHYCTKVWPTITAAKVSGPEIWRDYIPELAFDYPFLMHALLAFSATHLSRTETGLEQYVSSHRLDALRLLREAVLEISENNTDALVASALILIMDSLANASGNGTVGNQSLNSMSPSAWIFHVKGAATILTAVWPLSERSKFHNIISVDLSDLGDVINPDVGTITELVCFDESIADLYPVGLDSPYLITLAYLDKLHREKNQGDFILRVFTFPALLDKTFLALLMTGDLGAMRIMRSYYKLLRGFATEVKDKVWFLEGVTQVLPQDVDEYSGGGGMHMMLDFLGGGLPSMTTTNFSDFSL
# Assay: PBM E-score (8-mer binding enrichment) (E-score (-0.5 to 0.5)); higher = stronger / more preferred TF binding; most listed sequences are background and not binding sites
# Conditions: protein concentration: 200 nM; construct: GST-full length
# Procedure, shortened: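 The E-score, a modified Wilcoxon-Mann-Whitney statistic, was computed by the Universal PBM Analysis Suite for every ungapped eight-base word pooled with its reverse complement. Scans behind it were normalised with masliner after bound GST-tagged yeast transcription factors were detected with fluorescent anti-GST. The proteins, at about 100-200 nM, had been applied to universal all-10-mer Agilent arrays made double-stranded by primer extension.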
row,Sequence,PBM E-score
1,GAAAGACA,-0.0745
2,CGGCAATC,-0.0433
3,AGTATTTG,0.00187
4,GATGACGC,0.0864
5,AGAGCAAC,-0.073
6,GATTCCTA,-0.188
7,ACTAGAAA,-0.0843
8,AACCCAAC,0.00517
9,TAGTCCCA,-0.12
10,ATGAAGCA,-0.321
11,ACTTTGAC,0.0294
12,CTCAATAC,0.0135
13,GTTCATGA,0.225
14,AGCGCATG,-0.241
15,CATTAGCG,0.197
16,AGCAGAAA,0.174
17,ATGCTCAG,-0.202
18,AGAGATGA,-0.204
19,GTTGCTGA,-0.0941
20,CCTTTTCC,-0.107
21,ACAAACAC,0.0554
22,GGTCAACA,-0.142
23,CATTTTGC,-0.109
24,CATCAACC,-0.00214
25,AACCAGCG,-0.0712

row,Sequence,PBM E-score
1,AGGGATAC,-0.00979
2,CAACACCA,-0.0541
3,GGTGATGA,-0.0814
4,GGAGATGA,-0.253
5,AAACGAAC,0.471
6,CGCTACCA,-0.0165
7,TACGAGCA,0.465
8,AGCTGACG,-0.19
9,GGACCAAC,-0.188
10,CGACATGA,0.0914
11,TAGCTTCA,-0.203
12,CTACTTCC,-0.0779
13,TAGTGATA,-0.00764
14,CGAGGTAC,0.316
15,AAATGGGC,-0.0697
16,ATATTCTA,0.0819
17,CTTCATTA,-0.121
18,GACGTAGC,0.0263
19,ACGCTACG,0.365
20,CTGTCCTC,-0.247
21,GTCAGGTA,-0.0573
22,ATAGAGCA,-0.144
23,GTATGTGA,0.231
24,CGTAAACA,0.39
25,CATATGTA,-0.0834

row,Sequence,PBM E-score
1,CACATCGG,0.0544
2,GGCACCTA,-0.127
3,AGCATCTA,-0.164
4,AGAGAATA,-0.165
5,AAACATTG,-0.14
6,AGTAATTC,0.0634
7,AGTCGAGC,-0.152
8,TCCCTTCA,-0.0913
9,ACACCCAG,-0.225
10,AATAAGGG,-0.0545
11,CTATCCAA,-0.195
12,AACATCGG,-0.0699
13,ATTTAAGC,0.168
14,CGAATCCA,0.244
15,TGTATACA,0.141
16,GTGCATTA,0.024
17,GCAGCCTA,-0.02
18,TAACATCA,-0.00944
19,ACCCAGGG,-0.318
20,GAATCCGC,-0.126
21,TAGGACGA,-0.217
22,CCGACCGC,-0.128
23,ACGCGTCA,0.214
24,GTCTGACA,-0.141
25,AGCTCGCC,0.108

row,Sequence,PBM E-score
1,GCATCACA,-0.0251
2,GTCTTGCA,-0.146
3,AATCTACT,-0.107
4,GCATCGAA,0.00261
5,GCCTACAC,0.147
6,ATTCGTGG,-0.0645
7,CTGCGGGA,-0.18
8,AGACCGTG,-0.229
9,ACGTGAGC,-0.0218
10,AACTCTCC,-0.131
11,AGACATGC,-0.0678
12,TGCGTGAA,-0.167
13,CGAAACAG,0.143
14,AGGTGCAT,-0.226
15,CAGCTGTC,-0.125
16,GCTACCAC,-0.207
17,AACACCGA,-0.224
18,AAGGGGTA,-0.188
19,ATGCATGA,-0.143
20,CTAGACTC,-0.317
21,AAGCCTAA,0.0405
22,ATACCGTC,0.0825
23,AAGTCTCC,-0.0843
24,CATGAGCA,-0.124
25,CAATTGTG,0.00226

row,Sequence,PBM E-score
1,CGCAGATC,-0.0933
2,CGACTACG,0.182
3,CTGATACA,-0.0514
4,AGCCACAC,-0.00233
5,AAACTCAT,0.0367
6,CGGCGCCG,0.0271
7,TAAACTCA,0.0577
8,CGAGTCAA,0.0766
9,CGGCGTCC,-0.128
10,CGAGCCCA,0.087
11,AGTCGCCC,-0.204
12,ACCGCTAC,0.14
13,AAGTCATT,-0.0837
14,CAATGAGC,-0.258
15,TATAAAAA,0.144
16,AGAGGTAG,-0.248
17,GCTGGTAA,-0.186
18,CGGCATCA,0.0887
19,CTCGAGAA,0.0603
20,GTAAAACA,0.156
21,AGTAGTTA,-0.103
22,AGTCGGAT,0.114
23,CGCTATGA,-0.0537
24,ATGCTAGG,-0.0841
25,ACTATACA,0.11

row,Sequence,PBM E-score
1,CGAGGGTA,0.161
2,TAATATGA,-0.00428
3,CGTAATGA,0.191
4,ATAAGGAT,0.0152
5,ACAGCTTA,0.0103
6,CTTGAAGA,-0.22
7,ATTGCGTA,0.296
8,AAGTGGCC,-0.287
9,AAGTACTA,0.0981
10,AATGACGT,-0.132
11,ATAGCTAT,0.111
12,CATCCGCG,0.0291
13,TGATCCAA,-0.132
14,AAAAGCTA,0.024
15,ATAAAGTA,-0.00136
16,CACCCTCA,-0.288
17,AGTACCCA,-0.131
18,CTGCTCCC,-0.212
19,TCCTTAAA,-0.0228
20,GGGTTTTA,0.0495
21,ACGCCCGG,-0.136
22,CGGGGCTA,-0.0798
23,AAGTCTTG,-0.0567
24,CTTTACTC,-0.0508
25,AAATCACG,0.0508

row,Sequence,PBM E-score
1,CCCTCAGC,-0.0983
2,CCCGCGGC,-0.0659
3,GGCCTCAA,-0.068
4,AGCCCCGG,-0.0242
5,CATACATG,0.0019
6,GGGCGCGA,0.0873
7,CTCCAAGC,-0.145
8,AGAGGAAG,-0.244
9,CAGCCTCC,-0.258
10,ATGTTACG,0.276
11,ACTCGCAA,0.177
12,TCCGCAGA,-0.22
13,ATCCGCGC,0.0258
14,AATCTCGG,0.0584
15,GATCAACA,-0.117
16,CGTGAGAC,-0.0838
17,AAACCTGG,-0.271
18,CACGAGCA,-0.0761
19,ACTCAAAC,0.121
20,GACTTACC,-0.0121
21,CTCAGCGC,-0.217
22,GGGGGGTA,-0.313
